# The other results are listed elsewhere or left out.
# Test system: PfSIP2 AP2 domain 1 (GST-tagged)
# Experiment: gcPBM binding intensity (ln(normalized median fluorescence intensity)); higher = stronger DNA binding
# How it was run: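 GST-tagged P. falciparum DNA-binding domains, expressed in E. coli (about 25 μg on average), were applied for 1 h to an Agilent 4 × 180k array of primer-extended double-stranded 36-bp intergenic genomic probes plus negative controls. The binding buffer was 1× PBS with 1% milk, 0.2 mg/ml BSA, 0.5% salmon testes DNA and 0.03% Triton X-100. Bound protein was detected with Alexa488 anti-GST antibody and scanned at 488 nm. Binding intensity is the highest Masliner-normalised natural-log median intensity across replicate spots of either probe orientation.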
row,Sequence,gcPBM binding intensity (ln)
1,TAATAATACCCTTGCTGTACCAAATAAAGTTGAATA [XGTACX_site6922],7.01
2,AAATCAACGATCTATACATGCATATAATATATACAT [TGCATGCA_site25],6.78
3,GTAGCAATAAACATATGTACATATATATATTTTTTC [XGTACX_site5814],7.13
4,TTTCATAACAAAAAAGTGCAAAATAGCACGAACATT [GTGCAC_site9703],8.82
5,AGAAAAAGGAGAAAAAGTACAAAACGGAGTAGTATT [XGTACX_site3858],6.87
6,AAAAATTATATACATCATAGAATTAACATTTTAAAT [GTGCAC_negctrl_site369],6.72
7,AATTATTTACCCTATACACACAAAACAGACTAAAAA [CACACA_site6688],7.21
8,ATATTAATTCGTTTTGTACACACATAATGAATAATT [CACACA_site8701],6.94
9,ATAAAAATCATGTTGGTGCGAAATTTTATTATCAGA [GTGCAC_site9735],8.73
10,TTATGTATAAACACACGTACACACACTAAGTATATC [XGTACX_site3254],7.13
11,AAGGTATGATTAATCACACACATAAATATATATACA [CACACA_site2658],6.86
12,ACACATACACATTAGGTGCATATATTTCAATATTAC [GTGCAC_site9423],10.3
13,TTTAAAAAGATATATACACACATATAAATAAATATA [CACACA_site6436],6.92
14,CCACGTATAATATGTACACACACATATATACAAAAA [CACACA_site8208],7.43
15,AGCCTCGGGGTCATATATATATATATATATATATAT [CACACA_negctrl_site512],9.56
16,ATTATATTTTTAAGTACACACATATATATATATATA [CACACA_site5925],9.47
17,ATAAAAGGAAGAAAATGTACATATAATTATATGCAT [XGTACX_site8421],6.85
18,TTTTTCTATAAAAAAAAAAAAAAAAAATATATATAT [TGCATGCA_negctrl_site535],8.41
19,TTGTATATTTTATGTACACACAATAAGTTAATATAA [CACACA_site4655],7.29
20,AAAATAATGTATATATGTACATATAAATATATATAT [XGTACX_site8081],8.42
21,TATTATTGCATATTTACACACGTACTAATTTAAACA [CACACA_site970],7.54
22,TTTTACAAATATAATGGGTGAGCTATCAAAATAAAT [GTGCAC_negctrl_site91],6.93

row,Sequence,gcPBM binding intensity (ln)
1,TGTATACTATTAAATTGTACACATAAGAAATATTAT [XGTACX_site5839],7.03
2,ATGTTTTTAAAAAATTGTACATAATATTTTTTATAA [XGTACX_site7692],7.04
3,TATATATATATATATATAATACGAATTTGTAGTACA [TGCATGCA_negctrl_site224],9.65
4,TTATTTTAATAACCTACACACATTTTGTATATTTTA [CACACA_site4000],6.81
5,AAATGATGGAAAAAATAAATTTTTGTACAAAAATTA [CACACA_negctrl_site814],6.75
6,TTATAAATATTCTTGGGTACTTAAGATGATATGTAA [XGTACX_site5496],7.15
7,TGATACTTTTTTTGTAGTACTCCTAAAATTATAAAA [XGTACX_site4340],7.06
8,TTTTTTTTATTTTAATGTACATTTTTTATTTGTTAT [XGTACX_site7189],7.23
9,ATATATATATTATTTCGTACATAATTATTTGCCTTA [XGTACX_site350],8.79
10,AAAAAAAAAAAAAATTGTACAAAAAAAATAAATAAA [XGTACX_site6816],6.99
11,AAAAAAAAAAAAGAAACACACATATTTATATTTATA [CACACA_site6213],7.03
12,TTTTTTTTGTGGTGTCGTACATATGTTTGTTTTAAG [XGTACX_site1759],7.23
13,ATTATGCTACAAGGAGAACACACAATTGCCACTTTT [CACACA_site8673],6.97
14,ACATATATATATATATATATATATATATAATATTTA [CACACA_negctrl_site633],7.87
15,CCACGAGAATATATAGTGCATAATAATTTTTTTTTG,8.71
16,GGTGATAATAAGCATACACACACACCCAAAAAAAAA [CACACA_site8137],7.12
17,AAAAAAAAAAAGAAAGCACACAATACATATGTATAA [CACACA_site1137],6.83
18,ATATATATCAGACACACACACATGTTTTAAAACTAT [CACACA_site77],7.35
19,TAAATTTTTAAATACACACATACACCCATACAGACA [CACACA_site548],7.51
20,TATACACTTGTAATAACACACATTATTTTTTTTTTT [CACACA_site1324],6.79
21,TTATATTTATATGTAATACAAAATAACAAAAAATTT [CACACA_negctrl_site1721],6.86
22,TATATATATATATCCACACACATACATATATTAATA [CACACA_site69],9.67

row,Sequence,gcPBM binding intensity (ln)
1,TTGGTAATTTTAAAATGTACTTATTATATATATATA [XGTACX_site5642],8.67
2,AAATTAAAAGAAAATACACACCTGTGGGTGCTTATA [CACACA_site5143],8.11
3,ATTTTTTTTTGTTTAATGTTATGTGGTCATTAAATT [CACACA_negctrl_site1177],7.03
4,TATTTATTCACTTATTGTACTTATATATATAATAAA [XGTACX_site6147],7.21
5,AATTAACCGAAACACACACACATATATATATATATA [CACACA_site3963],9.14
6,TTTTGTTGTTGTTGTTGTACATAAATAATAAAATAT [XGTACX_site8681],7.39
7,ATATATTTTTTTTAGCGTACATGCAAAAAAAAAAAA [XGTACX_site4590],7.26
8,TCATAAATTAAACACACACACACATCTGGATACCCC [CACACA_site9096],7.3
9,TATACACACAGACATGCATGCACATATATATATACA [TGCATGCA_site30],7.87
10,CATATTTTGAACTTCACACATATATATATATATATA [CACACA_site4228],9.66
11,GGTAGATTATTATTAACGAAAAATGTTTTTAACATA [GTGCAC_negctrl_site216],7.07
12,CCTTTCTATTGAAAATGTACATATATATTATTATAT [XGTACX_site5527],7.29
13,AATAATTGTAGACATGCACACACAAATATTATATAT [CACACA_site8181],8.37
14,AATAATTGTTATAGTTGTACAATACATATATTACAA [XGTACX_site30],7.02
15,TGTATATATAAAAATATACACACTGTATTATTGTAA [CACACA_site3757],6.86
16,AATATATATACTTTTTTTTTTTTTTTTTTTTTTTTT [CACACA_negctrl_site520],8.75
17,ACAAATTGTTAAAGGTGTACAATACATATATAAGAA [XGTACX_site4906],7.38
18,TATGTTTACATATACGTGCACATGAATGTATACATT [GTGCAC_site9894],9.69
19,TTTAGCACAAACAAAAAAAAAATAGAAAAAAATATA [CACACA_negctrl_site1772],6.88
20,AAATAAAAAATGGAAATCTTAACAAGAATCATTAAC [CACACA_negctrl_site1626],6.86
21,TATATACAGAATATATGTACATATTCATTTTATATT [XGTACX_site5139],6.97
22,AAAAAATAAATAAATAGTACTTTAAAAGAAAAAAAA [XGTACX_site5051],6.67

row,Sequence,gcPBM binding intensity (ln)
1,AAAGAAAACCAAGTGGTGCATTTTCGTTACTTCATC,10
2,CAATGTTACTATAATACACACAATATGTATTTGTCT [CACACA_site6668],7.11
3,TAAAAAAAAGGAAATACATGCATCTACATATATATA [TGCATGCA_site500],7.2
4,ATATATTTCATTTTTGTACACACAACGTTGGAGGGT [CACACA_site8999],7.24
5,ATATAGGTAATAATAATACACACGGTGAAATATAGA [CACACA_site4040],6.82
6,AAAAAAAAAATATATATATATATATAATATATATAT [TGCATGCA_negctrl_site329],8.59
7,AAAAACTAACTGTATTGTACTCTCTTATAAATTCAC [XGTACX_site8967],6.91
8,GACAATATTAAAACATGTACATGCATTTTATGAATA [XGTACX_site553],7.05
9,TATAATATAAAATATGCACACATTGGAATGGGAGAA [CACACA_site3746],8.17
10,TATTGTAAAGTGTCATTATTACGTTATATTATATAT [CACACA_negctrl_site98],6.87
11,ATATAAGTATACACATGTACATATTTCTTATGTATA [XGTACX_site2854],7.05
12,GTATGATGTGAACATTGTACGAATGAATATATCTAA [XGTACX_site3789],6.84
13,TATAAAGACACGTACACACACTAAGTATATCCAATA [CACACA_site6855],7.23
14,AAAAAATTTATAAAAGCACACAAAATAAAAAAAAAT [CACACA_site8420],6.99
15,AAAATGTTAAATATTAAATATGAAACAAAAAAAAAA [GTGCAC_negctrl_site211],6.81
16,TATAATTTAAAATACACACACATATATATAATATAT [CACACA_site2000],6.99
17,TAAATACATTTATATACACACCTATATATATATATA [CACACA_site5137],9.28
18,TCCAAATGAAAAAATTGTACATATTTTATCATATAT [XGTACX_site6159],7
19,ATAAGAAATTTCATACGTACATAAATAAATATATAT [XGTACX_site2932],7.19
20,TTTCATTTTTGAAGGTGTACTTAAAATTTATGTAAT [XGTACX_site6671],7.05
21,AAAATTTATTATCTATATAATAATATGAAACAAAAC [GTGCAC_negctrl_site731],7.27
22,CTCATTTTGTTAATGGTGCAAAAAAAAAAAAAAAAA,11
